Data as given in the supplement of paper PMC4967469.
IC50 is the fitted dose that halves viability relative to control wells, and lower means more sensitive; where the fit passes the top or lowest dose, that dose stands as a limit. The AUC spans the tested range (256-fold, ending at the top dose) of the same fit; it is 1 without any effect and falls as sensitivity rises. For some assays here: The top dose, if marked as inferred, comes from the curve model; the source does not state it. For some assays here: Where an entry number is given, a second screen of the drug exists; the two often differ.

Assays:
Assay in all cases: Viability of human cancer cell lines after 72 h of drug (GDSC screen)
JNK-9L = compound: Fc1cc(-c2ccnc(Nc3ccc(-n4cnc(N5CCOCC5)n4)cc3)n2)cc(N2CCOCC2)c1 [JNK-9L]; conditions: top dose 5.12 µM; top dose inferred
Description: (§1)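 Human cancer cell lines in 384-well plates, medium with 10% serum, drug for 72 h over a 256-fold dose range (nine 2-fold or five 4-fold steps up to the top dose). Adherent lines were fixed and stained with the nucleic acid dye Syto60, suspension lines read with resazurin; signal relative to control wells, capped at 0 and 100%. One two-parameter sigmoid per drug and line, fitted in a mixed model over all curves with the slope shared within a line.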

RDEA119 = compound: COc1cc(F)c(F)c(Nc2ccc(I)cc2F)c1NS(=O)(=O)C1(C[C@H](O)CO)CC1 [RDEA119]; conditions: top dose 5 µM, top dose inferred
Description: as §1

AC220 = compound: CC(C)(C)c1cc(NC(=O)Nc2ccc(-c3cn4c(n3)sc3cc(OCCN5CCOCC5)ccc34)cc2)no1 [AC220]; conditions: top dose 1.024 µM; top dose inferred
Description: as §1

CUDC-101 = compound: C#Cc1cccc(Nc2ncnc3cc(OC)c(OCCCCCCC(=O)NO)cc23)c1 [CUDC-101]; conditions: top dose 5.12 µM; top dose inferred
Description: as §1

QS11 = compound: OC[C@H](Cc1ccccc1)Nc1nc(Oc2ccc3c(c2)CCC3)nc2c1ncn2Cc1ccc(-c2ccccc2)cc1 [QS11]; conditions: top dose 10.24 µM
Description: as §1

5-Fluorouracil = compound: O=c1[nH]cc(F)c(=O)[nH]1 [5-Fluorouracil]; conditions: top dose 32 µM; top dose inferred
Description: as §1

OSU-03012 = compound: NCC(=O)Nc1ccc(-n2nc(C(F)(F)F)cc2-c2ccc3c(ccc4ccccc43)c2)cc1 [OSU-03012]; conditions: top dose 16 µM; top dose inferred
Description: as §1

Row | Cell Line | AUC (JNK-9L) | IC50 (JNK-9L) | AUC (RDEA119; screen: GDSC drug entry 1014) | IC50 (RDEA119; screen: GDSC drug entry 1014) | AUC (AC220) | IC50 (AC220) | AUC (CUDC-101) | IC50 (CUDC-101) | AUC (QS11) | IC50 (QS11) | AUC (5-Fluorouracil) | IC50 (5-Fluorouracil) | AUC (OSU-03012) | IC50 (OSU-03012) | AUC (RDEA119; screen: GDSC drug entry 1526) | IC50 (RDEA119; screen: GDSC drug entry 1526)
1 | HuP-T3 (pancreas, adherent) | 0.702 | 1.36 µM | 0.596 | 0.609 µM | 0.975 | > 1.02 µM | 0.55 | 0.451 µM | 0.93 | > 10.2 µM | 0.723 | 10 µM | 0.818 | 11.7 µM | – | –
2 | HuP-T4 (pancreas, adherent) | 0.813 | 2.98 µM | 0.505 | 0.322 µM | 0.971 | > 1.02 µM | 0.427 | 0.2 µM | 0.835 | 7.35 µM | 0.486 | 1.83 µM | 0.641 | 2.52 µM | – | –
3 | IA-LM (large cell lung carcinoma, adherent) | 0.578 | 0.537 µM | 0.837 | 3.94 µM | 0.984 | > 1.02 µM | 0.779 | 2.36 µM | 0.804 | 5.86 µM | 0.851 | 29.3 µM | 0.529 | 1.21 µM | 0.932 | > 5 µM
4 | IGR-1 (melanoma, adherent) | 0.475 | 0.276 µM | 0.844 | 2.96 µM | 0.987 | > 1.02 µM | 0.298 | 0.0939 µM | 0.861 | 7.02 µM | 0.754 | 9.63 µM | 0.64 | 2.31 µM | – | –
5 | IMR-5 (neuroblastoma, adherent) | 0.588 | 0.536 µM | 0.992 | > 5 µM | 0.973 | > 1.02 µM | 0.581 | 0.513 µM | 0.786 | 3.69 µM | 0.424 | 1.29 µM | 0.753 | 4.61 µM | 0.973 | > 5 µM
6 | IPC-298 (melanoma, adherent) | 0.657 | 0.867 µM | 0.223 | 0.0496 µM | 0.984 | > 1.02 µM | 0.515 | 0.352 µM | 0.987 | > 10.2 µM | 0.531 | 2.43 µM | 0.868 | 14.2 µM | 0.244 | 0.0579 µM
7 | IST-MEL1 (melanoma, adherent) | 0.666 | 1.02 µM | 0.73 | 1.63 µM | 0.977 | > 1.02 µM | 0.578 | 0.544 µM | 0.923 | > 10.2 µM | 0.855 | > 32 µM | 0.686 | 3.69 µM | 0.761 | 2.1 µM
8 | IST-SL1 (small cell lung carcinoma, semi-adherent) | 0.659 | 0.9 µM | 0.962 | > 5 µM | 0.861 | 0.912 µM | 0.227 | 0.05 µM | 0.95 | > 10.2 µM | 0.75 | 10.7 µM | 0.843 | 11.8 µM | 0.951 | > 5 µM
9 | IST-SL2 (small cell lung carcinoma, suspension) | 0.509 | 0.34 µM | 0.96 | > 5 µM | 0.974 | > 1.02 µM | 0.986 | > 5.12 µM | 0.881 | > 10.2 µM | 0.984 | > 32 µM | 0.758 | 5.5 µM | 0.986 | > 5 µM
10 | J82 (bladder, adherent) | 0.539 | 0.408 µM | – | – | 0.988 | > 1.02 µM | 0.89 | > 5.12 µM | 0.845 | 7.32 µM | 0.948 | > 32 µM | 0.519 | 1.13 µM | 0.964 | > 5 µM
11 | JAR (urogenital system, adherent) | 0.854 | 3.93 µM | 0.973 | > 5 µM | 0.988 | > 1.02 µM | 0.615 | 0.658 µM | 0.988 | > 10.2 µM | 0.942 | > 32 µM | 0.979 | > 16 µM | 0.986 | > 5 µM
12 | JEG-3 (urogenital system, adherent) | 0.558 | 0.454 µM | 0.982 | > 5 µM | 0.991 | > 1.02 µM | 0.99 | > 5.12 µM | 0.964 | > 10.2 µM | 0.991 | > 32 µM | 0.842 | 9.63 µM | 0.989 | > 5 µM
13 | JHH-1 (liver, adherent) | 0.678 | 1.05 µM | 0.507 | 0.327 µM | 0.985 | > 1.02 µM | 0.114 | < 0.02 µM | 0.957 | > 10.2 µM | 0.8 | 17.1 µM | 0.688 | 3.54 µM | 0.563 | 0.473 µM
14 | JHH-2 (liver, adherent) | 0.961 | > 5.12 µM | 0.803 | 2.72 µM | 0.986 | > 1.02 µM | 0.551 | 0.447 µM | 0.985 | > 10.2 µM | 0.798 | 16.6 µM | 0.852 | 13.8 µM | 0.843 | 3.95 µM
15 | JHH-4 (liver, adherent) | 0.727 | 1.41 µM | 0.776 | 1.99 µM | 0.933 | > 1.02 µM | 0.577 | 0.518 µM | 0.864 | 8.92 µM | 0.907 | > 32 µM | 0.742 | 4.9 µM | 0.851 | 3.79 µM
16 | JHH-6 (liver, adherent) | 0.588 | 0.558 µM | – | – | 0.987 | > 1.02 µM | 0.778 | 2.12 µM | 0.971 | > 10.2 µM | 0.964 | > 32 µM | 0.743 | 5.05 µM | 0.921 | > 5 µM
17 | JHH-7 (liver, adherent) | 0.621 | 0.675 µM | 0.791 | 2.09 µM | 0.989 | > 1.02 µM | 0.673 | 0.936 µM | 0.784 | 4.07 µM | 0.929 | > 32 µM | 0.53 | 1.2 µM | 0.771 | 1.8 µM
18 | JHU-011 (head and neck, adherent) | 0.478 | 0.28 µM | 0.534 | 0.386 µM | 0.986 | > 1.02 µM | 0.524 | 0.371 µM | 0.867 | 9 µM | 0.395 | 1.03 µM | 0.611 | 2.01 µM | 0.874 | 4.7 µM
